This note sets out measurements from patent US8592383B2, “Cycloalkyl-fused tetrahydroquinolines as CRTH2 receptor modulators” (Merck Sharp & Dohme Corp., priority 2011, dated 2013).

This assay addresses T1, hCRTH2 (Homo sapiens, UniProt Q9Y5Y4).
T1 sequence (Q9Y5Y4 1-395): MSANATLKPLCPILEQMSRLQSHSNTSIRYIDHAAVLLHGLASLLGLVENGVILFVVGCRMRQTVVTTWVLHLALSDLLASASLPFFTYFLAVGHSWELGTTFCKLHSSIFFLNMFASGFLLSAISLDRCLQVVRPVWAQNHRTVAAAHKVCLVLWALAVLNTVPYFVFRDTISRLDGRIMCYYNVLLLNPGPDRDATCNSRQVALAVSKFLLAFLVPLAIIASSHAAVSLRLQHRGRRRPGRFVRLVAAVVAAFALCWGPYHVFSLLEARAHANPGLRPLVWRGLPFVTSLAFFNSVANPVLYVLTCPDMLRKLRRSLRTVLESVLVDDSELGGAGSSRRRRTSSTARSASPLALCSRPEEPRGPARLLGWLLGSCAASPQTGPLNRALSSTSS
In words: biochemical. The conditions noted are these: Ki (nM), Table A; Radioligand Binding Assay A, [3H]PGD2, HEK-hCRTH2 membranes.
As to `CC(OC(=O)N1c2ccccc2C(N(C(=O)CCC(=O)O)C2CC2)C2CCCC21)c1ccc(OC(F)(F)F)cc1` (racemic) [compound 140, 4-[1-[4-(trifluoromethoxy)phenyl]ethyl] cis, cis-[(3-carboxy-1-oxopropyl)cyclopropylamino]-1,2,3,3a,9,9a-hexahydro-4H-cyclopenta[b]quinoline-4-carboxylate], the inhibitory constant (Ki) (in general, the dissociation constant of the complex between target and ligand, obtained from inhibition or displacement) was in the range of 20.1 to 200 nM.

`COc1ccc(C(C)OC(=O)N2c3ccccc3C(N(C(=O)CCC(=O)O)C3CC3)C3CCCC32)cc1` (racemic) [compound 143, 4-[1-(4-methoxyphenyl)ethyl] cis, cis-[(3-carboxy-1-oxopropyl)cyclopropylamino]-1,2,3,3a,9,9a-hexahydro-4H-cyclopenta[b]quinoline-4-carboxylate] showed a Ki of 20.1 to 200 nM.

Consider `CN(CC(=O)O)C(=O)N(C1CC1)[C@@H]1c2ccccc2N(C(=O)c2ccc(OC(F)(F)F)cc2)[C@@H]2CCC[C@@H]21` (relative stereo) [compound 35, N-[[Cyclopropyl[cis,cis-2,3,3a,4,9,9a-hexahydro-4-[4-(trifluoromethoxy)benzoyl]-1H-cyclopenta[b]quinolin-9-yl]amino]carbonyl]-N-methylglycine], for which the Ki is 5.1 to 20 nM.

Turning to `O=C(O)CCC(=O)N(C1CC1)C1c2ccc(Cl)cc2N(C(=O)OCc2ccccc2)C2CCCC21` (single isomer, unassigned) [9A, 4-(phenylmethyl) cis,cis-[(3-carboxy-1-oxopropyl)cyclopropylamino]-6-chloro-1,2,3,3a,9,9a-hexahydro-4H-cyclopenta[b]quinoline-4-carboxylate], the Ki fell in the range of 1 to 5 nM.

In turn, `O=C(O)CCC(=O)N(C1CC1)[C@H]1c2cc(F)ccc2N(C(=O)OCc2ccccc2)[C@H]2CCC[C@H]21` (single isomer, unassigned) [9B] registered a Ki of 5.1 to 20 nM.

Regarding `O=C(CCC(=O)N(C1CC1)[C@H]1c2cc(F)ccc2N(C(=O)c2ccc(OC(F)(F)F)cc2)[C@H]2CCC[C@H]21)NS(=O)(=O)C1CC1` (single isomer, unassigned) [11A], the Ki was 20.1 to 200 nM.

Consider `CCN(C(=O)CCC(=O)NS(=O)(=O)C1CC1)C1c2ccccc2N(C(=O)c2ccc(SC(F)(F)F)cc2)C2CCC12` (single isomer, unassigned) [11B, N1-(cyclopropylsulfonyl)-N4-ethyl-N4-(cis,cis-3-(4-(trifluoromethylthio)benzoyl)-1,2,2a,3,8,8a-hexahydrocyclobuta[b]quinolin-8-yl)succinamide], for which the Ki lay within 20.1 to 200 nM.

`CCN(C(=O)CCC(=O)NS(C)(=O)=O)C1c2ccccc2N(C(=O)c2ccc(SC(F)(F)F)cc2)C2CCC12` (single isomer, unassigned) [11C, N1-ethyl-N4-(methylsulfonyl)-N1-(cis,cis-3-(4-(trifluoromethylthio)benzoyl)-1,2,2a,3,8,8a-hexahydrocyclobuta[b]quinolin-8-yl)succinamide] returned a Ki of 5.1 to 20 nM.

`CCc1ccc(C(=O)N2c3ccccc3C(N(CC)C(=O)CCC(=O)O)C3CCCC32)cc1` (single isomer, unassigned) [17AE, 4-[ethyl[cis,cis-4-(4-ethylbenzoyl)-2,3,3a,4,9,9a-hexahydro-1H-cyclopenta[b]quinolin-9-yl]amino]-4-oxobutanoic acid] gave a Ki of 201 to 7500 nM.

On to `CCN(C(=O)CCC(=O)O)C1c2ccccc2N(C(=O)c2cc(F)c(F)c(F)c2)C2CCCC12` (single isomer, unassigned) [17AG, 4-[ethyl[cis,cis-2,3,3a,4,9,9a-hexahydro-4-(3,4,5-trifluorobenzoyl)-1H-cyclopenta[b]quinolin-9-yl]amino]-4-oxobutanoic acid], for which the Ki was 20.1 to 200 nM.

`O=C(O)CCC(=O)N(C1CC1)C1c2ccccc2N(C(=O)c2cccs2)C2CCCC21` (single isomer, unassigned) [17BN, 4-[cyclopropyl[cis,cis-2,3,3a,4,9,9a-hexahydro-4-(2-thienylcarbonyl)-1H-cyclopenta[b]quinolin-9-yl]amino]-4-oxobutanoic acid] came in with a Ki of 5.1 to 20 nM.

With `O=C(O)CCC(=O)N(C1CC1)C1c2ccccc2N(C(=O)c2ccc(OC(F)F)cc2)C2CCCC21` (single isomer, unassigned) [17BP, 4-[cyclopropyl[cis,cis-4-[4-(difluoromethoxy)benzoyl]-2,3,3a,4,9,9a-hexahydro-1H-cyclopenta[b]quinolin-9-yl]amino]-4-oxobutanoic acid], the Ki was in the range of 5.1 to 20 nM.

The molecule `O=C(O)CCC(=O)N(C1CC1)C1c2ccccc2N(C(=O)c2ccc3ccccc3n2)C2CCCC21` (single isomer, unassigned) [17BQ, 4-[cyclopropyl[cis,cis-2,3,3a,4,9,9a-hexahydro-4-(2-quinolinylcarbonyl)-1H-cyclopenta[b]quinolin-9-yl]amino]-4-oxobutanoic acid] had a Ki of 5.1 to 20 nM.

In the case of `O=C(O)CCC(=O)N(C1CC1)C1c2ccccc2N(C(=O)c2ccccc2F)C2CCCC21` (single isomer, unassigned) [17BR, 4-[cyclopropyl[cis,cis-4-(2-fluorobenzoyl)-2,3,3a,4,9,9a-hexahydro-1H-cyclopenta[b]quinolin-9-yl]amino]-4-oxobutanoic acid], the Ki lay within 5.1 to 20 nM.

In turn, `O=C(O)CCC(=O)N(C1CC1)C1c2ccccc2N(C(=O)c2ccc3ccccc3c2)C2CCCC21` (single isomer, unassigned) [17BU, 4-[cyclopropyl[cis,cis-2,3,3a,4,9,9a-hexahydro-4-(2-naphthalenylcarbonyl)-1H-cyclopenta[b]quinolin-9-yl]amino]-4-oxobutanoic acid] came in with a Ki of 1 to 5 nM.

`O=C(O)CCC(=O)N(C1CC1)C1c2ccccc2N(C(=O)c2ccc(F)cc2F)C2CCCC21` (single isomer, unassigned) [17BV, 4-[cyclopropyl[cis,cis-4-(2,4-difluorobenzoyl)-2,3,3a,4,9,9a-hexahydro-1H-cyclopenta[b]quinolin-9-yl]amino]-4-oxobutanoic acid] displayed a Ki of 5.1 to 20 nM.

Molecule `O=C(O)CCC(=O)N(C1CC1)C1c2ccccc2N(C(=O)c2cccc(F)c2)C2CCCC21` (single isomer, unassigned) [17BW, 4-[cyclopropyl[cis,cis-4-(3-fluorobenzoyl)-2,3,3a,4,9,9a-hexahydro-1H-cyclopenta[b]quinolin-9-yl]amino]-4-oxobutanoic acid] returned a Ki of 5.1 to 20 nM.

The molecule `O=C(O)CCC(=O)N(C1CC1)C1c2cc(F)c(Cl)cc2N(C(=O)c2ccc(OC(F)(F)F)cc2)C2CCCC21` (single isomer, unassigned) [17BX, 4-[[cis,cis-6-chloro-7-fluoro-2,3,3a,4,9,9a-hexahydro-4-[4-(trifluoromethoxy)benzoyl]-1H-cyclopenta[b]quinolin-9-yl]cyclopropylamino]-4-oxobutanoic acid] came in with a Ki of 201 to 7500 nM.

`O=C(O)CCC(=O)N(C1CC1)C1c2cc(F)c(Cl)cc2N(C(=O)c2ccc(OC(F)(F)F)cc2)C2CCCC21` (single isomer, unassigned) [17BY, 4-[[cis,cis-6-chloro-7-fluoro-2,3,3a,4,9,9a-hexahydro-4-[4-(trifluoromethoxy)benzoyl]-1H-cyclopenta[b]quinolin-9-yl]cyclopropylamino]-4-oxobutanoic acid]: the Ki fell in the range of 1 to 5 nM.

`O=C(O)COC(=O)N(C1CC1)C1c2cc(F)c(Cl)cc2N(C(=O)c2ccc(OC(F)(F)F)cc2)C2CCCC21` (single isomer, unassigned) [17BZ, [[[[cis,cis-6-chloro-7-fluoro-2,3,3a,4,9,9a-hexahydro-4-[4-(trifluoromethoxy)benzoyl]-1H-cyclopenta[b]quinolin-9-yl]cyclopropylamino]carbon-yl]oxy]acetic acid] had a Ki of 201 to 7500 nM.

For the molecule `O=C(O)CCC(=O)N(C1CC1)C1c2ccccc2N(C(=O)c2cccc3ccccc23)C2CCCC21` (single isomer, unassigned) [17Bo, 4-[cyclopropyl[cis,cis-2,3,3a,4,9,9a-hexahydro-4-(1-naphthalenylcarbonyl)-1H-cyclopenta[b]quinolin-9-yl]amino]-4-oxobutanoic acid], the Ki lay within 1 to 5 nM.

Regarding `O=C(O)COC(=O)N(C1CC1)C1c2cc(F)c(Cl)cc2N(C(=O)c2ccc(OC(F)(F)F)cc2)C2CCCC21` (single isomer, unassigned) [17CA, [[[[cis,cis-6-chloro-7-fluoro-2,3,3a,4,9,9a-hexahydro-4-[4-(trifluoromethoxy)benzoyl]-1H-cyclopenta[b]quinolin-9-yl]cyclopropylamino]carbon-yl]oxy]acetic acid], the Ki lay within 1 to 5 nM.

`O=C(O)CCC(=O)N(C1CC1)C1c2ccc(F)cc2N(C(=O)c2ccc(F)cc2)C2CCC21` (single isomer, unassigned) [17CC, 4-[cyclopropyl[cis,cis-5-fluoro-3-(4-fluorobenzoyl)-1,2,2a,3,8,8a-hexahydrocyclobuta[b]quino-lin-8-yl]amino]-4-oxobutanoic acid]: the Ki fell in the range of 1 to 5 nM.

As for `CCc1ccc(C(=O)N2c3cc(F)ccc3C(N(C(=O)CCC(=O)O)C3CC3)C3CCC32)cc1` (single isomer, unassigned) [17CD, 4-[cyclopropyl[cis,cis-3-(4-ethylbenzoyl)-5-fluoro-1,2,2a,3,8,8a-hexahydrocyclobuta[b]quino-lin-8-yl]amino]-4-oxobutanoic acid], the Ki lay within 1 to 5 nM.

As to `O=C(O)CCC(=O)N(C1CC1)C1c2ccc(F)cc2N(C(=O)c2ccc(OC(F)(F)F)cc2)C2CCC21` (single isomer, unassigned) [17CE, 4-[cyclopropyl[cis,cis-5-fluoro-1,2,2a,3,8,8a-hexahydro-3-[4-(trifluoromethoxy)benzoyl]cyclobuta[b]quinolin-8-yl]amino]-4-oxobutanoic acid], the Ki is 1 to 5 nM.

Consider `[2H]C1(N(C(=O)CCC(=O)O)C2CC2)c2ccccc2N(C(=O)c2ccc(OC(F)(F)F)cc2)C2CCCC21` (single isomer, unassigned) [17CF], for which the Ki fell in the range of 5.1 to 20 nM.
